Source: the supplement of paper PMC11417369
Some of the results follow.

system: PfSIP2 AP2 domain 1 (GST-tagged); assay: gcPBM binding intensity (ln(normalized median fluorescence intensity)); higher = stronger DNA binding
Procedure, shortened: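 GST-tagged P. falciparum DNA-binding domains, expressed in E. coli (about 25 μg on average), were applied for 1 h to an Agilent 4 × 180k array of primer-extended double-stranded 36-bp intergenic genomic probes plus negative controls. The binding buffer was 1× PBS with 1% milk, 0.2 mg/ml BSA, 0.5% salmon testes DNA and 0.03% Triton X-100. Bound protein was detected with Alexa488 anti-GST antibody and scanned at 488 nm. Binding intensity is the highest Masliner-normalised natural-log median intensity across replicate spots of either probe orientation.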

Row | Sequence | gcPBM binding intensity (ln)
1 | CAAACAATTAAACAAACACACATATACAAGTATATA [CACACA_site8639] | 7
2 | AAAGAACAAATAAAACATAAAATAATATATATAGAT [CACACA_negctrl_site1764] | 7.02
3 | ATTAAAATTTGTTAAAGTACTTAATAAAAATTTTTC [XGTACX_site1959] | 6.93
4 | AATGACTACATAATAGTGCAATATTAAAGAAAATTA | 8.55
5 | TGTATATCATAAGATGGTACACGTGTGTGCGTATGC [XGTACX_site2255] | 7.26
6 | ATTCTTAAAAAAAAATGTACACATGAACAATATGTA [XGTACX_site362] | 7
7 | TTTAAGATTTTGTAATGTACATATATACATATATAT [XGTACX_site399] | 7.14
8 | TATATATTATATATGTGTACTCACTAACAAAAATTA [XGTACX_site6285] | 7.3
9 | AGGTGAATATTTTTTACACACATAAAAAAAATATAT [CACACA_site57] | 7.03
10 | AAATTATATAAAGGAACACACATTTTATTTTATTTT [CACACA_site1500] | 6.75
11 | TATATTTTTATAATAACACACGATATATGTTTAGGA [CACACA_site1283] | 6.76
12 | TTTTTAGTTAATTAAACACACAAAAAAAAAAATAAA [CACACA_site3930] | 6.85
13 | ATAATATTGTGGTATACACACCTTACAAAAAGGTAC [CACACA_site5582] | 7.11
14 | AATATTTTTATATATATACACACTTACATATATATA [CACACA_site3609] | 7.14
15 | TATTTTTTTACATATTGTACATAATATAAAACTTAC [XGTACX_site8273] | 7.17
16 | TATATTTGGTTTCATTCATTTTTATAGAAATCTCAA [CACACA_negctrl_site1412] | 6.94
17 | CACACGTATATATATACACACTAAAATACCCAGACA [CACACA_site6142] | 7.12
18 | ATTTTTTCATATTCTACACACGTGAACAAATGTGTC [CACACA_site3007] | 7.08
19 | ATATAATAGAAGTGTACACACATATTTATGGGTGTA [CACACA_site5686] | 7.04
20 | GTATATAATTATATATGTACTAAATAAATATTTTTA [XGTACX_site6062] | 6.97
21 | TTTTCTAAAAAAAGTTGTACATCTTATTTATATTAT [XGTACX_site295] | 6.94
22 | AAAAAATAAAAAAATAAAAAATAAAAAATAAAAAAT [TGCATGCA_negctrl_site90] | 6.72
23 | TATAAAAATAAATAAATAAATAAATAAATAAATAAA [TGCATGCA_negctrl_site310] | 7.08
24 | AAAAATTACCCATCCATACACACATATTTTTTTTAA [CACACA_site2190] | 7.05
25 | ATGTAAGACAAAAAGGGTACATAATGCGTATGTATT [XGTACX_site4666] | 6.89
